Data as given in the supplement of paper PMC12217912.
Some of the results follow. The full chains were built here from the parent and the listed change. Inactive controls read about 0.05.

B1: TEV protease; numbered along this chain (parent)
chain: MGESLFKGPRDYNPISSSICHLTNESDGHTTSLYGIGFGPFIITNKHLFRRNNGTLVVQSLHGVFKVKDTTTLQQHLVDGRDMIIIRMPKDFPPFPQKLKFREPQREERICLVTTNFQTKSMSSMVSDTSCTFPSGDGIFWKHWIQTKDGQCGSPLVSTRDGFIVGIHSASNFTNTNNYFTSVPKNFMELLTNQEAQQWVSGWRLNADSVLWGGHKVFMVKPEEPFQPVKEATQL

Variants of: B1
Experiment: raw area under fraction-flipped curve 0-4 h after induction (AUC4h, not background-subtracted), DNA-recorder readout of cleavage of the substrate (dimensionless); higher = more cleavage of the substrate by the protease variant
Conditions: temperature: 34 °C; time window: 0-4 h after rhamnose induction
Protocol: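 In vivo DNA recorder in E. coli TOP10(DE3) ΔrhaA at 34 °C. Each TEVp single-site mutant (parent TEVp 0) is paired with a single-site variant of the 7-mer TEVs (canonical ENLYFQ|S). The substrate sits between flexible linkers in a Bxb1-sfGFP-TEVs-SsrA fusion, so cleavage stabilises Bxb1 and speeds flipping of a recombination array, read by NGS. The value is the raw area under the fraction-flipped curve over 0-4 h after rhamnose induction (AUC4h), with ≥20 reads per time point. It is not background-subtracted; inactive controls average about 0.047.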
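Also: Bxb1 expression induced with 0.2% (w/v) L-rhamnose at OD600 near 0.5, cultures sampled hourly, flipped fraction per protease–substrate barcode pair counted by paired-end Illumina sequencing.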

| Variant | area with substrate ENAYFQS | area with substrate ENCYFQS | area with substrate ENDYFQS | area with substrate ENEYFQS | area with substrate ENFYFQS | area with substrate ENGYFQS | area with substrate ENHYFQS | area with substrate ENNYFQS | area with substrate ENQYFQS | area with substrate ENRYFQS | area with substrate ENTYFQS | area with substrate ENVYFQS | area with substrate ENIYFQS | area with substrate ENKYFQS | area with substrate ENMYFQS | area with substrate ENPYFQS | area with substrate ENSYFQS | area with substrate ENYYFQS | area with substrate ENWYFQS |
| --- | --- | --- | --- | --- | --- | --- | --- | --- | --- | --- | --- | --- | --- | --- | --- | --- | --- | --- | --- |
| MGESLFKGPRDYNPISSSICHLTNESDGHGTSLYGIGFGPFIITNKHLFRRNNGTLVVQSLHGVFKVKDTTTLQQHLVDGRDMIIIRMPKDFPPFPQKLKFREPQREERICLVTTNFQTKSMSSMVSDTSCTFPSGDGIFWKHWIQTKDGQCGSPLVSTRDGFIVGIHSASNFTNTNNYFTSVPKNFMELLTNQEAQQWVSGWRLNADSVLWGGHKVFMVKPEEPFQPVKEATQL [T30G] | 0.0547 | 0.0524 | 0.059 | 0.0616 | 0.0329 | 0.0624 | 0.0526 | 0.0274 | 0.0268 | 0.0458 | 0.0284 | 0.0581 |  |  |  |  |  |  |  |
| MGESLFKGPRDYNPIWSSICHLTNESDGHTTSLYGIGFGPFIITNKHLFRRNNGTLVVQSLHGVFKVKDTTTLQQHLVDGRDMIIIRMPKDFPPFPQKLKFREPQREERICLVTTNFQTKSMSSMVSDTSCTFPSGDGIFWKHWIQTKDGQCGSPLVSTRDGFIVGIHSASNFTNTNNYFTSVPKNFMELLTNQEAQQWVSGWRLNADSVLWGGHKVFMVKPEEPFQPVKEATQL [S16W] | 0.0671 | 0.0618 | 0.0601 | 0.0603 | 0.062 | 0.0866 | 0.0576 | 0.0573 | 0.0545 | 0.0639 |  | 0.0866 | 0.152 | 0.0507 | 0.0643 | 0.0608 | 0.0831 | 0.0687 |  |
| MGESLFKGPRDYNPISSSICHLTNESDGHTTSLYGIGFGPFIITNKHLFRRNNGTLVVQSLHGVFKVKDTTTLQQHLVDGRDMIIIRMPKDFPPFPQKLKFREPQREERICLVTTNFQTKSMSSMVSDTSCTFPSGDGIFWKHWIQTKDGQCGSPLVSTRDGFIVGIHSASNFTNTNNYFTSVPKNFMELLTNPEAQQWVSGWRLNADSVLWGGHKVFMVKPEEPFQPVKEATQL [Q194P] | 0.0533 | 0.067 | 0.0761 | 0.0656 |  | 0.049 | 0.0578 | 0.0498 | 0.0583 | 0.0453 | 0.0617 | 0.0828 |  | 0.0408 | 0.0982 | 0.0682 | 0.0694 |  |  |
| MGESLFKGPRDYNPISSSICHLTNESDGHTTSLYGIGFGPFIITNKHLFRRNNGTLVVQSLHGVFKVKDTTTLQQHLVDGRDMIIIRMPKDFPPFPQKLKFREPQREERICLVTTNFQTKSMSSMVSDTSCTFPSGDGIFWKHWIQTKDGQCGSPLVSTRDGFIVGIHSASNFTNTNNYFTSVPKNFMELLTNQEAQQWVSGWRLNADSVLFGGHKVFMVKPEEPFQPVKEATQL [W212F] | 0.061 | 0.0711 | 0.0673 | 0.0607 | 0.0598 | 0.0644 |  |  | 0.0546 | 0.0634 | 0.0559 | 0.0667 |  |  | 0.0838 | 0.074 | 0.052 | 0.068 |  |
| MGESLFKGPRDYNPISSSICHLTNESDGHTTSLYGIGFGPFIITNKHLFRRNNYTLVVQSLHGVFKVKDTTTLQQHLVDGRDMIIIRMPKDFPPFPQKLKFREPQREERICLVTTNFQTKSMSSMVSDTSCTFPSGDGIFWKHWIQTKDGQCGSPLVSTRDGFIVGIHSASNFTNTNNYFTSVPKNFMELLTNQEAQQWVSGWRLNADSVLWGGHKVFMVKPEEPFQPVKEATQL [G54Y] | 0.047 | 0.0577 |  | 0.055 | 0.062 |  | 0.101 | 0.057 | 0.0613 | 0.0689 | 0.0618 | 0.0581 |  | 0.0602 | 0.0663 |  | 0.063 | 0.0719 |  |
| MGESLFKGPRDYNPISSSICHLTNESDGHTTSLYGIGFGPFIITNKHLFRRNNGTLVVQSLHGVFKVKDTTTLQQHLVDGRDMIIIRMPKDFPPFPQKLKFREPQREERICLVTTNFQTKSMSSMVSDTSCRFPSGDGIFWKHWIQTKDGQCGSPLVSTRDGFIVGIHSASNFTNTNNYFTSVPKNFMELLTNQEAQQWVSGWRLNADSVLWGGHKVFMVKPEEPFQPVKEATQL [T132R] | 0.0522 |  | 0.0554 | 0.0594 | 0.0645 |  | 0.0484 |  | 0.0578 | 0.0538 | 0.0451 | 0.0541 | 0.0559 |  |  | 0.0373 | 0.0572 |  |  |
| MGESLFKGPRDYNPISSSICHLTNESDGHTTSLYGIGFGPFIITNKHLFRRNNGTLVVQSLHGVFKVKDTTTLQQHLVDGRDMIIIRMPKDFPPFPQKLKFREPQREERICLVTTNFQTKSMSSMVSDTSCTFPSGDGIFWKHWIQTKDGQCGSPLVSTRDGFIVGIHSASNFTNTNNYFTSVPKNFMELLTNQEAQQWVSGWRLNADSVLWDGHKVFMVKPEEPFQPVKEATQL [G213D] | 0.0526 |  |  | 0.0584 |  |  |  |  | 0.0573 | 0.0586 | 0.0521 |  |  | 0.0582 | 0.0566 |  | 0.0685 |  |  |
| MGESLFKGPRDYNPISSSICHLTNESTGHTTSLYGIGFGPFIITNKHLFRRNNGTLVVQSLHGVFKVKDTTTLQQHLVDGRDMIIIRMPKDFPPFPQKLKFREPQREERICLVTTNFQTKSMSSMVSDTSCTFPSGDGIFWKHWIQTKDGQCGSPLVSTRDGFIVGIHSASNFTNTNNYFTSVPKNFMELLTNQEAQQWVSGWRLNADSVLWGGHKVFMVKPEEPFQPVKEATQL [D27T] | 0.0586 | 0.0682 | 0.0504 | 0.0658 | 0.0641 | 0.0637 | 0.0608 | 0.0646 | 0.064 | 0.0648 | 0.0204 | 0.0648 |  |  | 0.0587 | 0.0732 | 0.0678 |  | 0.0077 |
| MGESLFKGPRDYNPISSSICHLTNESDGHTTSLYGIGFGPFIITNKHLFRRNNGTLVVQSLHGVFKVKDTTTLQQHLVDGRDMIIIRMPKDFPPFPQKLKFREPQREERICLVTTNFQTKSMSSMVSDTSCTFPSGDGIFWKHWIQTKDGQCGSPLVSTRDGFIVGIHSASNFTNTNNYFTSVPKNFMELLTNQEAQQWVSGWRLNADSVLWGGHKVFMVKPEEPAQPVKEATQL [F226A] | 0.0744 |  |  |  | 0.0671 | 0.0693 |  | 0.0774 | 0.0616 | 0.062 |  |  |  |  |  |  | 0.0574 |  |  |
